The record followed here is PubChem BioAssay AID463173 (ICCB-Longwood Screening Facility, Harvard Medical School, 2010).

Out of some 52,000 compounds screened, about 1,700 (3.3%) were called active. No stated cut-off is given here; in the data, active means survival mostly below about 52% (no sharp cut-off); inactive means mostly above about 56%. This is one part of the list.

The assay deals with Wild type. The assay is described as follows: growth inhibition of S. aureus wild type versus tarO mutant, primary screen, teichoic acid synthesis inhibitors, RN4220, OD600 (AID 463173). The conditions noted are these: S. aureus RN4220 wild type/DeltatarO growth, OD600, 18 h, hits give low values, screened at 18.75 µg/mL (by protocol).
`CN(C(=O)Cn1nnc2ccccc2c1=O)C1CCCCC1`: the survival was inactive: 113%.

For `CCOc1ccc(C2CC(=O)Nc3nc(SCc4ccccc4C)[nH]c(=O)c32)cc1OC` (centres undefined), the survival is inactive: 113%.

For the compound `Cc1ccc(CCNC(=O)c2ccc3nc(N4CCC(C)CC4)sc3c2)cc1`, the survival was inactive: 87%.

On to `CC(C)NC(=O)c1ccc(Cn2c(SCC(N)=O)nc3ccccc3c2=O)cc1`, for which the survival was inactive: 74%.

In the case of `COc1ccc(C2CC(=O)N3CN(C4CCCCC4)CSC3=C2C#N)c(OC)c1` (centres undefined), the survival was inactive: 82%.

As for `COc1ccc2nc(N(Cc3cccnc3)C(C)=O)sc2c1`, the survival is inactive: 68%.

Consider `O=C(NCc1cccnc1)c1nn(-c2ccc(Cl)cc2)nc1CO`, for which the survival was inactive: 87%.

With `COc1cc(Cl)c(C)cc1Nc1nc2ccccc2c2nnc(C)n12`, the survival is inactive: 130%.

Take `CCc1ccc(-n2c(=O)c3cccnc3n2CC(=O)NCc2ccccc2)cc1`: the survival was inactive: 138%.

`COC(=O)c1cc2oc(C)cc2n1Cc1ccc(Br)cc1F`: the survival is inactive: 48%.

Turning to `CCC(Oc1ccccc1-c1nnc(-c2ccccc2)o1)C(=O)Nc1ccc(C(C)=O)cc1` (centres undefined), the survival was inactive: 118%.

As for `CC1=C(C)C/S(=N\S(=O)(=O)c2ccc(Cl)cc2)N(S(=O)(=O)c2ccc(Cl)cc2)C1` (centres undefined), the survival was inactive: 114%.

`COC(=O)c1ccc(NC(=O)CSc2ccc(-c3sc(-c4ccccc4)nc3C)nn2)cc1`: the survival was inactive: 61%.

For the compound `COc1ccc(Nc2ncc3c(n2)CCN(Cc2ccccc2C)C3)c(OC)c1`, the survival is inactive: 90%.

As to `N#Cc1cccc(C(c2nnnn2Cc2ccccc2)N2CCCC2)c1` (centres undefined), the survival is inactive: 102%.

With `O=C(NC1CC(=O)N(c2ccc(F)cc2)C1)c1ccco1` (centres undefined), the survival is inactive: 80%.

With `COc1ccccc1C1CC(=O)NC(C)=C1C(=O)OC1CCCCCC1` (centres undefined), the survival is inactive: 84%.

For `CC(=O)Nc1nc(-c2cccs2)nc2c1c(=O)oc1ccccc12`, the survival is inactive: 99%.

Consider `O=C(O)C1CCN(C(=O)c2ccc(-c3ccccc3)cc2)CC1`, for which the survival was inactive: 116%.

On to `COc1cccc(OC)c1C(=O)N1CCNCC1`, for which the survival is inactive: 97%.

Regarding `COC(=O)c1c(C)oc2ccc(N(C(=O)c3ccncc3)S(=O)(=O)c3ccc(OC)cc3)cc12`, the survival is inactive: 84%.

As for `O=C(Nc1cccc(C(F)(F)F)c1)c1ccc2c(c1)nnn2C1CCCC1`, the survival was inactive: 72%.

For `CCc1ccc(-n2c(=O)c3c4c(sc3n(Cc3ccccc3C#N)c2=O)CCC4)cc1`, the survival is inactive: 137%.

Take `O=C1CC(NCC2CCCCC2)C(=O)N1c1ccccc1` (centres undefined): the survival is inactive: 107%.

Take `COc1ccc(S(=O)(=O)NCCc2nnc3ccc(SCC(=O)Nc4ccccc4C)nn23)cc1`: the survival was inactive: 114%.

Regarding `Cn1c(Cn2cnc3ccccc32)nnc1SCC(=O)CC(=O)Nc1ccccc1`, the survival was inactive: 107%.

As for `COc1ccc(-c2nc3sc(CCNC(=O)c4ccco4)c(C)n3n2)cc1`, the survival was inactive: 71%.

For `CCS(=O)(=O)Nc1ccc(-c2cn3ccsc3n2)cc1`, the survival is active: -1%.

As for `Cn1cc(CN(C(=O)Nc2ccccc2)C2CCCCC2)c2ccccc21`, the survival was active: -1%.

With `COc1cc2c(cc1OC)CN(C(=O)Nc1ccccc1)CC2`, the survival is inactive: 83%.

Take `CN(C)c1ccc(CNS(=O)(=O)c2ccc(-c3cc(C(F)(F)F)on3)s2)cc1`: the survival is inactive: 75%.

Take `CCCCn1c(=O)c2oc3ccccc3c2n(CC(=O)Nc2ccc(CC)cc2)c1=O`: the survival is inactive: 85%.

Turning to `CCn1cc2nc(SCc3cc(C)ccc3C)n(CCc3ccccc3)c(=O)c2n1`, the survival is inactive: 76%.

For the compound `Cc1cccc(N2CCN(S(=O)(=O)c3c(C)nc4scc(C)n4c3=O)CC2)c1C`, the survival was inactive: 133%.

In the case of `COc1ccccc1NC(=O)c1ccc(COc2ccc(C)c(C)c2)o1`, the survival is active: 0%.

Take `Cc1ccccc1NC(=O)CN1CCCC1`: the survival was inactive: 110%.

`CCCCn1c(=N)n(CCCOc2ccc(F)cc2)c2ccccc21`: the survival was inactive: 52%.

Take `CC1CCN(C(c2ccccc2)c2sc3nc(-c4ccco4)nn3c2O)CC1` (centres undefined): the survival was inactive: 68%.

As to `O=C(CSc1nc(-c2ccccc2)cn1-c1ccccc1F)Nc1ccc(F)cc1`, the survival is inactive: 68%.

Regarding `COc1ccc(CNS(=O)(=O)c2cc3c(cc2Cl)N(C(C)=O)CCO3)cc1`, the survival was inactive: 85%.

With `COc1ccc(-c2nnc(SC(C)C)n2-c2ccccc2)cc1`, the survival is inactive: 115%.

As to `COc1ccc(NC(=O)CSc2nc(-c3cc(OC)c(OC)c(OC)c3)[nH]c2-c2ccc(F)cc2)cc1`, the survival is inactive: 67%.

Consider `COc1cc(NC(=O)CN2CCN(S(=O)(=O)c3ccc(Br)cc3)CC2)cc(OC)c1`, for which the survival is inactive: 124%.

For `Cc1ccc(Nc2cc(C(=O)NCCc3ccccc3)c3ccccc3n2)c(C)c1`, the survival was inactive: 88%.

Take `O=C(Cn1c(C(=O)NCC2CCCO2)cc2sccc21)c1ccccc1` (centres undefined): the survival is inactive: 110%.

As for `CCCCC(=O)Nc1c(C(=O)N2CCN(c3ccccc3F)CC2)oc2ccccc12`, the survival is inactive: 82%.

As for `O=C(Cn1nc(-c2ccc(Cl)cc2)c2ccccc2c1=O)Nc1cccc(Br)c1`, the survival is inactive: 61%.

Regarding `CSc1ccccc1NC(=O)CSc1ncccn1`, the survival is inactive: 112%.

In the case of `O=C(Nc1cccc(F)c1)C1CCCN(S(=O)(=O)c2cccc3cccnc23)C1` (centres undefined), the survival is inactive: 67%.

Turning to `Cc1ccccc1Cn1c(COc2ccc(Cl)cc2)nc2ccccc21`, the survival is inactive: 130%.

On to `Cc1nc2ccc(S(=O)(=O)N(C)CC(=O)Nc3ccc(C(C)C)cc3)cc2s1`, for which the survival was inactive: 131%.

As for `Cc1nc(C)c(CC(=O)O)c(=O)[nH]1`, the survival was inactive: 112%.

With `COc1ccc(CNC(=O)C2CCN(c3nnc(-n4c(C)ccc4C)s3)CC2)c(OC)c1`, the survival is inactive: 79%.

As for `CC1CCN(S(=O)(=O)c2ccc3c(c2)c(=O)c(C(=O)N2CCN(c4cccc(Cl)c4)CC2)cn3C)CC1`, the survival was inactive: 94%.

As for `O=c1c2cc3c(cc2nc2sc(Nc4ccccc4)nn12)OCO3`, the survival is inactive: 72%.

In the case of `Cc1ccc(-n2ncc(C(=O)NCCN3CCc4ccccc4C3)c2C2CCN(C(=O)OC(C)(C)C)CC2)cc1C`, the survival was inactive: 71%.

As for `COc1ccc(NC(=O)CN2CCN(CC(=O)Nc3ccccc3F)CC2)c(OC)c1`, the survival is inactive: 91%.

As to `O=C(CN(Cc1ccccc1)C(=O)Cn1nnc(-c2ccc(F)cc2)n1)NC1CCCC1`, the survival was inactive: 111%.

As for `O=C1c2ccccc2-c2onc3c(Oc4ccccc4)cc(O)c1c23`, the survival was inactive: 115%.
